This is an account of results in PubChem BioAssay AID1508642 (National Center for Advancing Translational Sciences (NCATS), 2021).

The structures appear in SMILES notation. Out of some 43,000 compounds screened, about 200 (0.47%) were called active. About 12% were inconclusive and are not listed. Calls follow the shape of the dose curve; as a rule, active = well fitted cell-killing curve with a large enough effect; inconclusive = small, poorly fitted or top-dose-only effect, or effect the other way; inactive = flat fitted curve, though single readings scatter. The list shows a part of the results.
% is scaled to controls: 0 for no effect and ±100 for the full control effect.

The assay can be described thus: Cell viability qHTS assay in S16 Pmp22-F2sN cells. Also: nearly all actives have a fitted effect of over 65% in size. Conditions: S16 Pmp22-F2sN Schwann cells (luciferase reporters placed in the Pmp22 gene) viability, CellTiter-Glo, 24 h; series mostly up to 57.5 µM; activity change, negative = cytotoxicity: at the top concentration. The essentials: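 Luminescence from CellTiter-Glo, read by CCD camera after a 15 min room-temperature incubation, served as the viability signal. Reporter Schwann cells (S16 Pmp22-F2sN) had been treated with pin-transferred compounds for 24 h at 37C.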
On to `COc1ccc(-c2noc(-c3ccc(NC4CCCC4)c([N+](=O)[O-])c3)n2)cc1`, for which the “activity change, negative = cytotoxicity” value is inactive: 8.32%.
With `CCCN(CCC)C(=O)C1CCCN(S(=O)(=O)c2ccc3c(c2)oc(=O)n3C)C1` (stereo unspecified), the “activity change, negative = cytotoxicity” value was inactive: 5.88%.
Consider `O=C(c1ccccc1)c1ccccc1NC(=O)c1ccccc1C(=O)O`, for which the “activity change, negative = cytotoxicity” value was inactive: -0.85%.
Regarding `Cc1ccc(-c2nc(CS(=O)CC(=O)N3CCN(c4ccccc4)CC3)c(C)o2)cc1` (stereo unspecified), the “activity change, negative = cytotoxicity” value was inactive: -0.38%.
For `Cc1ccc(C(=O)c2oc3ccccc3c2NC(=O)c2cc(-c3ccccc3)on2)cc1F`, the “activity change, negative = cytotoxicity” value is inactive: 11%.
In the case of `CCN(CC)c1cc(C)c2cc(NC(=O)/C=C/c3ccc(C)cc3)ccc2n1`, the “activity change, negative = cytotoxicity” value is inactive: 21.8%.
Take `CC(=O)c1ccc(N2CCN(C(=O)c3cc4cc5cc(C)ccc5nc4s3)CC2)cc1`: the “activity change, negative = cytotoxicity” value was inactive: 8.81%.
For the molecule `COc1ccc(Cl)cc1NC(=O)c1cc2c(s1)-c1ccccc1OC2`, the “activity change, negative = cytotoxicity” value was inactive: -9.96%.
Regarding `COCCNC(=O)CCc1nc2cccnc2n1Cc1ccc(OC)cc1`, the “activity change, negative = cytotoxicity” value is inactive: -0.822%.
On to `COc1ccc(OC)c(NC(=O)CSc2cn(CC(=O)N3CCOCC3)c3ccccc23)c1`, for which the “activity change, negative = cytotoxicity” value is inactive: 23.1%.
The result for `COc1cccc(C2C(C(=O)Nc3ccccc3)=C(C)Nc3nc(-c4ccccc4)nn32)c1` (stereo unspecified) reads inactive: 7.01%; that for `Oc1c(Br)cc(Br)cc1-c1nc2ccccc2s1`, inactive: -2.84%; that for `CS(=O)(=O)N(CC(=O)NCCSc1ccccc1)c1cc(C(F)(F)F)ccc1Cl`, inactive: 10.3%.
In the case of `COc1ccc(C2C=C(c3ccccc3)Nc3nc(NS(=O)(=O)c4ccc(Cl)cc4)nn32)cc1` (stereo unspecified), the “activity change, negative = cytotoxicity” value was inactive: 5.06%.
As for `O=C(Cn1c(=O)n(CC2CCC(C(=O)NCCc3ccccc3)CC2)c(=O)c2ccccc21)Nc1cccc(F)c1` (stereo unspecified), the “activity change, negative = cytotoxicity” value was inactive: 9.05%.
For `CC(=O)c1cc2c(cc1N/C(=N/S(=O)(=O)c1ccc(Br)cc1)c1ccccc1)OCO2`, the “activity change, negative = cytotoxicity” value was inactive: -17.9%.
Regarding `COc1ccc(C(=O)Cn2c(=O)c(-c3cc(C)ccc3NC(C)=O)nc3ccccc32)cc1`, the “activity change, negative = cytotoxicity” value was inactive: 7.29%.
For `O=C(COc1ccccc1)NC1CC(=O)N(c2ccc3c(c2)OCCO3)C1` (stereo unspecified), the “activity change, negative = cytotoxicity” value was inactive: 2.69%.
Turning to `COC(=O)c1ccccc1NC(=O)N1CCc2c(sc3c2CCCC3)C1c1ccc(F)cc1` (stereo unspecified), the “activity change, negative = cytotoxicity” value was inactive: 23%.
On to `CCOc1ccccc1NC(=O)Cn1c(=O)n(-c2cccc(C)c2)c(=O)c2c1c1cc(OC)ccc1n2C`, for which the “activity change, negative = cytotoxicity” value is inactive: 0.853%.
Regarding `CCOc1ccc(C(=O)c2cn(CC(=O)Nc3ccc(Cl)cc3)c3cc4c(cc3c2=O)OCCO4)cc1`, the “activity change, negative = cytotoxicity” value was inactive: -6.17%.
Consider `Cc1ccc(C)c(N2CCN(C(=O)c3noc4c3CCCCC4)CC2)c1`, for which the “activity change, negative = cytotoxicity” value was inactive: -7.54%.
The result for `Cc1ccccc1Cn1c(CN2CCCC(C)C2)nc2c1c(=O)n(C)c(=O)n2C` (stereo unspecified) reads inactive: 2.88%; that for `COc1ccc(OC)c(NC(=O)c2cnn(-c3ccc(C)cc3)c2C2CCNCC2)c1`, inactive: -11%; that for `CCc1ccccc1N(C)C(=O)c1cc2c(=O)oc3ccccc3c2s1`, inactive: -0.913%.
Take `CC(C)n1c(=N)c(C(=O)NCc2ccccc2)cc2c(=O)n3ccccc3nc21`: the “activity change, negative = cytotoxicity” value is inactive: 1.97%.
In the case of `COc1cc(NC(=O)c2cc(S(=O)(=O)N3CCc4ccccc43)cn2C)cc(OC)c1OC`, the “activity change, negative = cytotoxicity” value is inactive: -2.52%.
As for `Cc1ccc(C)c(CN2C(=O)c3ccccc3S(=O)(=O)c3ccc(C(=O)N4CCCCC4)cc32)c1`, the “activity change, negative = cytotoxicity” value is inactive: -1.43%.
Take `COc1cc2c(=O)n(CCc3ccccc3)c(=O)n(CC(=O)Nc3ccccc3)c2cc1OC`: the “activity change, negative = cytotoxicity” value is inactive: 1.46%.
As to `O=C(COc1ccccc1[N+](=O)[O-])N(Cc1ccco1)c1ccccn1`, the “activity change, negative = cytotoxicity” value was inactive: -5.02%.
As for `O=C(C1CCC1)N1CCc2cc(S(=O)(=O)NCc3ccc(F)cc3)ccc21`, the “activity change, negative = cytotoxicity” value was inactive: -14.8%.
As to `COc1ccc(C)cc1NC(=O)N1CCCn2nc(C)cc21`, the “activity change, negative = cytotoxicity” value was inactive: -1.63%.
As to `CC(C)CC(=O)Nc1c(C(=O)N2CCN(c3ccccc3)CC2)oc2ccccc12`, the “activity change, negative = cytotoxicity” value is inactive: -0.599%.
Consider `CCCN(C(=O)c1coc(=O)c2ccccc12)c1ccccc1C`, for which the “activity change, negative = cytotoxicity” value was inactive: 0.428%.
As for `CCc1ccc(OCC2c3cc(OC)c(OC)cc3CCN2C(=O)COc2ccccc2)cc1` (stereo unspecified), the “activity change, negative = cytotoxicity” value is inactive: -1.07%.
Consider `CCCN(CCC)C(=O)c1c2c(nc3ccccc13)C(=O)N(C1CCCCC1)C2`, for which the “activity change, negative = cytotoxicity” value was inactive: 6.36%.
Turning to `COc1ccc(-n2nc(C(=O)Nc3cccc(C)n3)c3c4ccccc4n(C)c3c2=O)cc1Cl`, the “activity change, negative = cytotoxicity” value was inactive: 1.61%.
Regarding `CCOc1ccc(CCNC(=O)CCc2cn(Cc3ccc(F)cc3)c3ccccc23)cc1`, the “activity change, negative = cytotoxicity” value is inactive: 8.87%.
Turning to `COc1cccc(NC(=O)C(Cc2ccccc2)NS(=O)(=O)c2ccc3c(c2)oc(=O)n3C)c1` (stereo unspecified), the “activity change, negative = cytotoxicity” value was inactive: -23.1%.
In the case of `Cc1coc2cc3oc(=O)c(CC(=O)NCCc4ccccc4)c(C)c3cc12` it was inactive: 16.7%; in that of `CCOc1ccc(NC(=O)Cn2cc(C(=O)c3ccco3)c3ccccc32)cc1`, inactive: 8.14%; in that of `CCOc1ccc(CCNC(=O)c2cc3c(-c4ccc(OC)c(OC)c4)nn(C)c3s2)cc1OCC`, inactive: -21.6%.
For the molecule `CCn1c(=O)cc(OCC(=O)Nc2cc(Cl)c(OC)cc2OC)c2ccccc21`, the “activity change, negative = cytotoxicity” value is inactive: -4.44%.
In the case of `Cc1ccc(N2C(=O)CSC23C(=O)N(CC(=O)Nc2ccc(C(C)C)cc2)c2ccccc23)cc1C` (stereo unspecified) it was inactive: -27.3%; in that of `Cc1cccc(N2CCN(S(=O)(=O)c3cc(C(=O)Nc4ccccc4Cl)ccc3F)CC2)c1C`, inactive: -28.4%.
Turning to `CCc1ccccc1NC(=O)CSc1nnc2ccc3ccccc3n12`, the “activity change, negative = cytotoxicity” value was inactive: -9.37%.
